Test systems include 501Mel; A101D; A2058; A375.
Assay in all cases: cell count relative to DMSO control; melanoma cells; higher = more viable cells
Holding throughout (settings): library dose: standard library concentration; 72 h

The structures appear in SMILES notation. The list shows a part of the results. Many values rest on one well or one pass, so single values are uncertain.
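Note: cells treated in 1,536-well plates, then fixed and DAPI-stained, with nuclei counted from automated high-throughput microscope images.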

As for `Nc1nc(F)nc2c1ncn2[C@@H]1O[C@H](CO)[C@@H](O)[C@@H]1O` [fludarabine] + COc1cc2ncnc(Nc3ccc(Oc4ccccc4)cc3)c2cc1OC [SrcI1] (first compound 1 µM, partner dose 10 µM), the cell count in the assay with 501Mel came out at 4.21%; in the assay with A101D, 69.2%; in the assay on A2058, 73.7%; in the assay with A375, 51.3%.

Take `Nc1ncn([C@H]2C[C@H](O)[C@@H](CO)O2)c(=O)n1` [decitabine] + COc1cc(N2CCC(N3CCN(C)CC3)CC2)ccc1Nc1ncc(Cl)c(Nc2ccccc2S(=O)(=O)C(C)C)n1 [NVP-TAE684] (first compound 0.5 µM, partner dose 0.4 µM): the cell count in the assay on 501Mel was found to be 77.8%; in the assay on A101D, 84.2%; in the assay on A2058, 55.7%; in the assay on A375 it was 78.6%.

For `Nc1ncn([C@H]2C[C@H](O)[C@@H](CO)O2)c(=O)n1` [decitabine] + Oc1cc(-c2nc(-c3ccccc3)[nH]c2-c2ccncc2)ccc1Cl [L779450] (first compound 0.5 µM, partner dose 1 µM), the cell count in the assay on 501Mel worked out at 69.1%; in the assay on A101D it was 73.7%; in the assay with A2058, 74.7%; with A375 it was 92.4%.

On to `Nc1nc(F)nc2c1ncn2[C@@H]1O[C@H](CO)[C@@H](O)[C@@H]1O` [fludarabine] + COc1ccc2c(c1)CCC1C2CCC2(C)C(NCCCCCCN3C(=O)C=CC3=O)CCC12 [U73122] (first compound 1 µM, partner dose 2 µM), for which the cell count was 4.63% with 501Mel, 72.6% in the assay with A101D, 63.5% with A2058 and 28.7% in the assay on A375.

As for `CC(=O)c1c(C)c2cnc(Nc3ccc(N4CCNCC4)cn3)nc2n(C2CCCC2)c1=O` [palbociclib] + COc1ccc(-c2ccc3c(N4CCOCC4)nc(N4C[C@@H](C)O[C@@H](C)C4)nc3n2)cc1CO [KU0063794] (first compound 0.2 µM, partner dose 0.1 µM), the cell count in the assay on 501Mel amounted to 92.4%; in the assay on A101D, 70.3%; in the assay with A2058 it was 95%; in the assay with A375, 73.9%.

As to `CC(=O)O[C@@]12CO[C@@H]1C[C@H](O)[C@@]1(C)C(=O)[C@H](O)C3=C(C)[C@@H](OC(=O)[C@H](O)[C@@H](NC(=O)OC(C)(C)C)c4ccccc4)C[C@@](O)([C@@H](OC(=O)c4ccccc4)[C@H]21)C3(C)C` [Docetaxel] + COc1ccc2c(c1)CCC1C2CCC2(C)C(NCCCCCCN3C(=O)C=CC3=O)CCC12 [U73122] (first compound 0.0005 µM, partner dose 2 µM), the cell count in the assay with 501Mel worked out at 48.6%; in the assay on A101D, 36%; with A2058, 5.49%; in the assay with A375 it was 64.3%.

`CC(=O)O[C@@]12CO[C@@H]1C[C@H](O)[C@@]1(C)C(=O)[C@H](O)C3=C(C)[C@@H](OC(=O)[C@H](O)[C@@H](NC(=O)OC(C)(C)C)c4ccccc4)C[C@@](O)([C@@H](OC(=O)c4ccccc4)[C@H]21)C3(C)C` [Docetaxel] + CCCCCCCCCCCC1=C(O)C(=O)C=C(O)C1=O [Embelin] (first compound 0.0005 µM, partner dose 6 µM): the cell count in the assay on 501Mel amounted to 35.4%; in the assay with A101D, 42%; with A2058, 6.59%; in the assay with A375 it was 71.9%.

Regarding `CC(=O)O[C@@]12CO[C@@H]1C[C@H](O)[C@@]1(C)C(=O)[C@H](O)C3=C(C)[C@@H](OC(=O)[C@H](O)[C@@H](NC(=O)OC(C)(C)C)c4ccccc4)C[C@@](O)([C@@H](OC(=O)c4ccccc4)[C@H]21)C3(C)C` [Docetaxel] + O=C(Nc1ccccc1)c1cc([N+](=O)[O-])ccc1Cl [GW9662] (first compound 0.0005 µM, partner dose 10 µM), the cell count was determined as 52% in the assay on 501Mel, 54.4% with A101D, 9.22% in the assay with A2058 and 96.5% with A375.

As to `Nc1ccn([C@@H]2O[C@H](CO)[C@@H](O)C2(F)F)c(=O)n1` [gemcitabine] + COc1ccc(-c2ccc3c(N4CCOCC4)nc(N4C[C@@H](C)O[C@@H](C)C4)nc3n2)cc1CO [KU0063794] (first compound 0.002 µM, partner dose 0.1 µM), the cell count is 67.3% in the assay with 501Mel, 66.4% in the assay on A101D, 58.7% in the assay on A2058 and 83.6% in the assay with A375.

On to `Nc1ccn([C@@H]2O[C@H](CO)[C@@H](O)C2(F)F)c(=O)n1` [gemcitabine] + CCCCCCCCCCCC1=C(O)C(=O)C=C(O)C1=O [Embelin] (first compound 0.002 µM, partner dose 6 µM), for which the cell count with 501Mel amounted to 119%; in the assay on A101D it was 85.1%; with A2058 it was 50.4%; with A375, 90.3%.

For `Nc1ncn([C@H]2C[C@H](O)[C@@H](CO)O2)c(=O)n1` [decitabine] + COc1ccc2c(c1)CCC1C2CCC2(C)C(NCCCCCCN3C(=O)C=CC3=O)CCC12 [U73122] (first compound 0.5 µM, partner dose 2 µM), the cell count in the assay with 501Mel worked out at 87.5%; in the assay on A101D, 65.4%; in the assay with A2058, 47.4%; with A375, 93.6%.

With `Nc1nc(F)nc2c1ncn2[C@@H]1O[C@H](CO)[C@@H](O)[C@@H]1O` [fludarabine] + COc1ccc(COc2ccc(Cc3cnc(N)nc3N)cc2OC)cc1 [GW2580] (first compound 1 µM, partner dose 5 µM), the cell count worked out at 2.39% in the assay with 501Mel, 78.5% with A101D, 67.5% with A2058 and 85.9% in the assay on A375.

In the case of `CC(=O)c1c(C)c2cnc(Nc3ccc(N4CCNCC4)cn3)nc2n(C2CCCC2)c1=O` [palbociclib] + Oc1nc(-c2ccc(C(F)(F)F)cc2)nc2c1CSCC2 [XAV939] (first compound 0.2 µM, partner dose 10 µM), the cell count is 48.8% in the assay on 501Mel, 73.6% in the assay with A101D, 68.7% in the assay on A2058 and 54.7% in the assay with A375.

Turning to `CC(=O)O[C@@]12CO[C@@H]1C[C@H](O)[C@@]1(C)C(=O)[C@H](O)C3=C(C)[C@@H](OC(=O)[C@H](O)[C@@H](NC(=O)OC(C)(C)C)c4ccccc4)C[C@@](O)([C@@H](OC(=O)c4ccccc4)[C@H]21)C3(C)C` [Docetaxel] + O=C(O)C(=O)Nc1sc2c(c1C(=O)O)CCNC2 [TCS401] (first compound 0.0005 µM, partner dose 8.33333 µM), the cell count in the assay with 501Mel amounted to 49.5%; in the assay with A101D it was 49%; in the assay on A2058, 8.96%; with A375, 87.6%.

Regarding `CC(=O)O[C@@]12CO[C@@H]1C[C@H](O)[C@@]1(C)C(=O)[C@H](O)C3=C(C)[C@@H](OC(=O)[C@H](O)[C@@H](NC(=O)OC(C)(C)C)c4ccccc4)C[C@@](O)([C@@H](OC(=O)c4ccccc4)[C@H]21)C3(C)C` [Docetaxel] + COc1ccc(-c2ccc3c(N4CCOCC4)nc(N4C[C@@H](C)O[C@@H](C)C4)nc3n2)cc1CO [KU0063794] (first compound 0.0005 µM, partner dose 0.1 µM), the cell count in the assay with 501Mel turned out to be 40.4%; in the assay on A101D it was 53.5%; in the assay with A2058 it was 5%; in the assay on A375, 79.7%.

As to `CC(=O)O[C@@]12CO[C@@H]1C[C@H](O)[C@@]1(C)C(=O)[C@H](O)C3=C(C)[C@@H](OC(=O)[C@H](O)[C@@H](NC(=O)OC(C)(C)C)c4ccccc4)C[C@@](O)([C@@H](OC(=O)c4ccccc4)[C@H]21)C3(C)C` [Docetaxel] + Cn1cc(/C=C2\C(=O)Nc3cccnc32)c2ccccc21 [GW441756] (first compound 0.0005 µM, partner dose 2 µM), the cell count with 501Mel stood at 30.5%; in the assay with A101D, 59.4%; in the assay with A2058 it was 8.84%; in the assay on A375, 53.9%.

As for `Nc1nc(F)nc2c1ncn2[C@@H]1O[C@H](CO)[C@@H](O)[C@@H]1O` [fludarabine] + Oc1cc(-c2nc(-c3ccccc3)[nH]c2-c2ccncc2)ccc1Cl [L779450] (first compound 1 µM, partner dose 1 µM), the cell count in the assay with 501Mel was 8.53%; with A101D it was 81%; in the assay on A2058 it was 85.4%; with A375, 71.2%.

For the compound `CC(=O)c1c(C)c2cnc(Nc3ccc(N4CCNCC4)cn3)nc2n(C2CCCC2)c1=O` [palbociclib] + CCN(CC)CCCCNc1ncc2cc(-c3cc(OC)cc(OC)c3)c(NC(=O)NC(C)(C)C)nc2n1 [PD173074] (first compound 0.2 µM, partner dose 0.5 µM), the cell count in the assay with 501Mel is 45.4%; in the assay on A101D, 52.8%; in the assay on A2058, 82.3%; in the assay on A375, 72.2%.

With `Nc1ccn([C@@H]2O[C@H](CO)[C@@H](O)C2(F)F)c(=O)n1` [gemcitabine] + O=S(=O)(c1ccccc1)N(CC(F)(F)F)c1ccc(C(O)(C(F)(F)F)C(F)(F)F)cc1 [T0901317] (first compound 0.002 µM, partner dose 7 µM), the cell count in the assay with 501Mel came out at 61.5%; with A101D, 70.3%; in the assay on A2058, 51.1%; with A375 it was 80.5%.

The values are drawn from the supplement of paper PMC4604168 (melanoma cell lines).
